# Measured values from article PMC4336329 (PLoS ONE, 2015).
# Hit rate of the full screen: of about 310,000 compounds, about 2,200 (0.71%) showed an effect of 50% or more. The effect is printed as a negative number. Some of the results follow.
# Biological target: human ether-à-go-go-related gene (hERG) potassium channel (human, UniProt Q12809)
# Assay: primary screen, population patch clamp on CHO cells stably expressing hERG
# Sequence of human ether-à-go-go-related gene (hERG) potassium channel (Q12809 whole entry, looked up): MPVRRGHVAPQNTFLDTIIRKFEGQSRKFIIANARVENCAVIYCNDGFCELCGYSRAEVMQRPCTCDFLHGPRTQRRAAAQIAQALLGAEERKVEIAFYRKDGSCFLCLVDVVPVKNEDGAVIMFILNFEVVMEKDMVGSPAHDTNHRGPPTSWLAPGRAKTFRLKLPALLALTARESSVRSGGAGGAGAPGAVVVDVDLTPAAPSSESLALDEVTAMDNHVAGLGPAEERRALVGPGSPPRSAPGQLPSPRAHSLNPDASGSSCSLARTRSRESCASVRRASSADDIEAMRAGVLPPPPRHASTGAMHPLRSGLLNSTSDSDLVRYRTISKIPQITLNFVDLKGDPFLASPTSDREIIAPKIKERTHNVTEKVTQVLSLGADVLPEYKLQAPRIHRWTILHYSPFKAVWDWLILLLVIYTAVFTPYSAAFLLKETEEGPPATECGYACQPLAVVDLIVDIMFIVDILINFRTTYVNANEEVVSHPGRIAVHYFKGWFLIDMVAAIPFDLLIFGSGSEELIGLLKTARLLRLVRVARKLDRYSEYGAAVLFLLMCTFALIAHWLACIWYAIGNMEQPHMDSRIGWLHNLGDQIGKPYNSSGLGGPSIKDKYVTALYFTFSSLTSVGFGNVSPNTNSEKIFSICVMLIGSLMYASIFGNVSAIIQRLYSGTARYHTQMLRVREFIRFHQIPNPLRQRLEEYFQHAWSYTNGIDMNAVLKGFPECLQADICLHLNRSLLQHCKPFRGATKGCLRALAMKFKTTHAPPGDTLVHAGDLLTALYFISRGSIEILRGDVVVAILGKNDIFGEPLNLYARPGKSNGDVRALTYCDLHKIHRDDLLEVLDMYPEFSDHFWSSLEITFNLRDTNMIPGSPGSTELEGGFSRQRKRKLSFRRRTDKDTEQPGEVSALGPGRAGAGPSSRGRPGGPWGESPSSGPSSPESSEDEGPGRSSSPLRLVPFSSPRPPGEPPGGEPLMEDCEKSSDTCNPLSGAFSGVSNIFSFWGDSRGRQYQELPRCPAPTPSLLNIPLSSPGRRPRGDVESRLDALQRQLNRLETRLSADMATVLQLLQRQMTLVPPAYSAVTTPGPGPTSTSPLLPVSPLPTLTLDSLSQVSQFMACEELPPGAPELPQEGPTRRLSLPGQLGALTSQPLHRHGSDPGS
row,Compound,"hERG current change (%, negative = inhibition) at 1uM"
1,Cc1ccc(-c2ccc(C(=O)Nc3ccccc3)o2)c2ccccc12,2.6%
2,Cc1cc(=O)n2[nH]c(-c3ccccc3)cc2n1,11.2%
3,Cn1nccc1-c1cc(Cl)cc(Cl)c1O,14.3%
4,COc1ccc(S(=O)(=O)N2CCCCCC2)cc1C(=O)OCc1c(C)noc1C,5.35%
5,Cc1ccc(-c2cc(C(=O)Nc3c(C#N)cnn3C)no2)cc1,1.51%
6,COc1ccc2c(/C=C/c3cc[n+](C)cc3)c[nH]c2c1.[I-],6.76%
7,COc1ccccc1N1CCN(C(=O)CCNS(=O)(=O)c2ccc3c(c2)CCC(=O)N3)CC1,7.88%
8,O=c1[nH]cnc2cc(-c3ccccc3)sc12,-0.187%
9,CC(C)c1ccc(CCNC(=O)CCNS(=O)(=O)c2ccc(Br)cc2)cc1,9.33%
10,COc1ccccc1-n1c(=O)[nH]c2c(C(N)=O)nc(-c3cccnc3)nc21,15.9%
11,C=CCNC(=S)NNC(=O)c1ccc(Br)o1,6.63%
12,O=C1CC2(CCN(C(=O)COc3ccc(F)cc3)CC2)Oc2ccccc21,-17%
13,COc1ccc(OCC(=O)Nc2ccc3c(c2)OCO3)cc1,11.7%
14,Cc1ccc([N+](=O)[O-])cc1NC(=O)Nc1ccc(S(N)(=O)=O)cc1,10.3%
15,COc1ccccc1C(C)NC(=O)c1ccc(NC(=O)CC2SC(N3CCCC3)=NC2=O)cc1 (centres unmarked),9.73%
16,Cc1cc(C)n(-c2nc3c(c(=O)[nH]c(=O)n3C)n2CC(O)COc2ccc(Cl)cc2Cl)n1 (centres unmarked),6.36%
17,COc1ccc(NC(=O)NCCN2CCN(c3ccc(C)cc3)CC2)c(Cl)c1,10.5%
18,Cc1cccc(OCC(O)Cn2c(NCCCOC(C)C)nc3c2c(=O)[nH]c(=O)n3C)c1 (centres unmarked),15.5%
19,CCOc1cc(C(=S)N2CCOCC2)cc(Br)c1OS(=O)(=O)c1ccccc1,9.96%

row,Compound,"hERG current change (%, negative = inhibition) at 1uM"
1,Cc1ccc2nc(SCC(=O)Nc3ccccc3F)nc(=O)n2c1,0.366%
2,Cc1ccc(NC(=O)CCn2nnc3ccccc32)cc1,11.5%
3,Cc1ccc(C)c(NS(=O)(=O)c2cc(C(=O)Nc3ccccc3-c3ccccc3)ccc2C)c1,20.7%
4,CC(C)c1ccc(NC(=O)NC2CCN(CC(=O)Nc3cccc4ccccc34)CC2)cc1,0.726%
5,CCOc1ccc(CNC(=O)c2ccc3nc(N4CCOCC4)sc3c2)cc1,11.9%
6,CCOC(=O)C1CCCN(C(=O)C(C)(C)Oc2ccc(Cl)cc2)C1 (centres unmarked),9.7%
7,Cc1cccc(-c2cc3nc(-c4ccccc4)cc(N4CCC5(CC4)OCCO5)n3n2)c1,3.79%
8,O=C(CSc1nnc(CNC(=O)c2cccs2)o1)Nc1ccc(F)cc1F,10.7%
9,Cc1ccc(C(=O)NNC(=O)c2ccc(C)cc2)cc1,10.1%
10,Cc1ccc(-n2nnnc2Sc2nc([N+](=O)[O-])nn2C)cc1,-2.24%
11,Cc1c(NC(=O)COc2cccc3c2OC(C)(C)C3)c(=O)n(-c2ccccc2)n1C,9.98%
12,CCNC(=S)N/N=C(\C)c1cc2ccccc2o1,8.88%
13,CCSc1nnnn1-c1ccccc1,12.6%
14,CCC(C)(C)C1CCC2(CC1)NC(=O)N(CC(=O)N1CCN(S(=O)(=O)c3cc(C)ccc3C)CC1)C2=O (centres unmarked),7.25%
15,O=C(CSC(=S)N1CCOCC1)Nc1nc(=O)c2ccccc2s1,11.2%
16,O=[N+]([O-])c1ccc(-c2ccc(S(=O)(=O)N3CCOCC3)cc2)cc1,1.45%
17,O=C(O)c1ccc([N+](=O)[O-])c(CS(=O)(=O)c2ccccc2)c1,11.9%
18,COc1ccc2c(C)c(Cl)c(=O)oc2c1,2.08%
19,COc1cccc(N2CCN(C3CCCC(C)C3)CC2)c1 (centres unmarked),-8.58%

row,Compound,"hERG current change (%, negative = inhibition) at 1uM"
1,O=c1[nH]c(=O)n(C2CCCCCC2)c(O)c1C=NCC1CCCO1 (centres unmarked),11.7%
2,CC1CCCCC12NC(=O)N(CC(=O)Nc1sccc1C(N)=O)C2=O (centres unmarked),10.1%
3,O=C(NCCc1ccccc1)C1CCC(=O)N1C1CCCC1 (centres unmarked),10.5%
4,COc1cc(O)c(NC(C)=O)c2nonc12,10.8%
5,O=C(Oc1cccc2ccccc12)c1cc(Cl)nc2ccccc12,-3.46%
6,CCN(CC)S(=O)(=O)c1ccc2c(c1)N(CC(=O)N1CCCC1)C(=O)CO2,-8.49%
7,O=S(=O)([O-])c1ccc(N2N=C(c3ccccc3)CC2c2ccccc2)cc1.[Na+] (centres unmarked),5.69%
8,CC(Oc1ccc(-c2ccccc2)cc1)C(=O)N/N=C/c1cccnc1 (centres unmarked),7.56%
9,COC(=O)N/N=C/c1ccc(OC(=O)/C=C/c2ccco2)cc1,10.7%
10,COc1ccc2cc(-c3ccccc3)ncc2c1,11.7%
11,Nc1nc(CN2CCN(Cc3ccccc3)CC2)nc(Nc2ccc3c(c2)OCCO3)n1,-52.3%
12,Cc1nn(Cc2ccc([N+](=O)[O-])cc2)c(=O)n1-c1cccc(F)c1,10.4%
13,CCn1ccnc1CNC(=O)CC1C(=O)NCCN1Cc1ccc(OC)cc1OC (centres unmarked),9.16%
14,NC(=O)c1ccccc1NC(=O)c1ccccc1F,0.365%
15,O=C(NCCN1CCN(c2ccccc2)CC1)c1cccn2c(=O)c3ccccc3nc12,-10.8%
16,CCOc1ccc2oc(C(=O)OCC(=O)NC3CCCCC3)c(C)c2c1,-7.14%
17,COc1ccc(-c2cc(C(F)F)n3ncc(C(=O)Nc4cccc(S(=O)(=O)N5CCOCC5)c4)c3n2)cc1,4.57%
18,CCNc1oc(-c2cccc3ccccc23)nc1C#N,12%
